{"source": "PubChem BioAssay AID651820", "about": "(National Center for Advancing Translational Sciences (NCATS), 2012)", "note": "Screen size: about 340,000 compounds; about 12,000 (3.5%) were called active. Inconclusive results, whose numbers are uncertain, are shown with a selection of clear calls. The call rests on the fitted dose curve; in most records, active means well fitted inhibition curve with a large enough effect; inconclusive means small, poorly fitted or top-dose-only effect, or another doubt; inactive means no such curve, though single readings can be large or run the other way. Potencies of inconclusive entries are left out as doubtful fits. Potency means the concentration at half of the fitted maximal effect; tags describe the fitted curve by direction and shape.", "data": [{"test": "qHTS Assay for Inhibitors of Hepatitis C Virus (HCV)", "settings": "Huh7.5.1 HCVcc-Cre (HCVcc is cell-culture hepatitis C virus) infection, luciferase reporter, 44 h; series mostly up to 41.8 µM", "outline": "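Infectious HCV cell culture screen: compound-treated cells (1,000/well, pre-plated 4 h) are infected with HCVcc-Cre at roughly 0.5 moi and grown 44 h. Infection is quantified by luciferase signal after 15 min substrate incubation at room temperature.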", "values": [{"smiles": "N/C(=N\\c1nc2ccccc2o1)NC(=O)c1ccccc1", "Potency": "inconclusive [inhibitor, single point]"}, {"smiles": "COc1cc(NC(=O)c2ccc(Cl)cc2Cl)ccc1NC(=O)c1cccs1", "Potency": "inconclusive [inhibitor, full curve]"}, {"smiles": "NS(=O)(=O)c1ccc2c(c1)C1C=CCC1C(C1CC=CCC1)N2", "note": "(centres undefined)", "Potency": "inconclusive [inhibitor, single point]"}, {"smiles": "CCOC(=O)CC1C(=O)NCCN1c1nc2c(C)cccn2c(=O)c1/C=C1\\SC(=S)N(C(C)CC)C1=O", "note": "(centres undefined)", "Potency": "inconclusive [inhibitor, partial curve]"}, {"smiles": "Cn1c(SCC(=O)NCC2CCCO2)ncc(C(=O)Nc2ccc(Cl)cc2)c1=O", "note": "(centres undefined)", "Potency": "inconclusive [inhibitor, single point]"}, {"smiles": "Cc1ccc(/C=C/c2onc(C)c2S(=O)(=O)N2CCC(C(=O)N3CCCCC3)CC2)cc1", "Potency": "inactive"}, {"smiles": "CC(C)CCN(Cc1ccco1)S(=O)(=O)c1csc(C(N)=O)c1", "Potency": "inactive"}, {"smiles": "Cc1nc(NCc2cccnc2)c2c3c(sc2n1)CCCC3", "Potency": "active: 7.08 µM"}, {"smiles": "O=C1CSC(c2cn(-c3ccccc3)nc2-c2cc3ccccc3oc2=O)N1Cc1ccco1", "note": "(centres undefined)", "Potency": "inconclusive [inhibitor, partial curve, poor fit]"}, {"smiles": "CC(C)CCn1c(O)c(N=NC(=O)c2ccco2)c2ccccc21", "Potency": "inconclusive [inhibitor, partial curve]"}, {"smiles": "COc1cccc(C2(c3cccc(OC)c3)CC2C(=O)Nc2ccccc2Cl)c1", "note": "(centres undefined)", "Potency": "inconclusive [inhibitor, single point]"}, {"smiles": "COc1cc(OC)c2nc(C)c3c(c2c1)N(c1ccc(O)cc1)CC3", "Potency": "inconclusive [inhibitor, partial curve, poor fit]"}, {"smiles": "Oc1c(CN2CCN(c3ccccn3)CC2)cc(Cl)c2cccnc12", "Potency": "active: 5.01 µM"}, {"smiles": "CCN(CC(=O)Nc1ccc(OC)cc1)C(=O)c1cc(-c2cccs2)nn1-c1ccccc1", "Potency": "inconclusive [inhibitor, partial curve]"}, {"smiles": "Cc1ccccc1OCCC(=O)Nc1ccccc1C(=O)N1CCCCC1", "Potency": "inactive"}, {"smiles": "CC(=O)Nc1ccc(NC(=O)c2ccc(C)c(S(=O)(=O)Nc3cccc(C)c3)c2)cc1", "Potency": "active: 12.6 µM"}, {"smiles": "C=CC(=O)Nc1ccc(Nc2nc(NC3CCC(N(C)C)CC3)nc3c2ncn3C(C)C)cc1", "note": "(centres undefined)", "Potency": "active: 1.26 µM"}, {"smiles": "O=C(NCc1ccc(F)cc1)C(Cc1ccccc1)n1cccc1", "note": "(centres undefined)", "Potency": "inactive"}, {"smiles": "COc1cc(NC(=O)COc2ccccc2C)ccc1NC(=O)c1ccco1", "Potency": "inconclusive [inhibitor, full curve]"}, {"smiles": "CCOc1ccc(NS(=O)(=O)c2ccc(C)c(C(N)=O)c2)cc1", "Potency": "inconclusive [inhibitor, single point]"}, {"smiles": "N=C(N)Cc1ccccc1Sc1ccccc1", "Potency": "inactive"}, {"smiles": "Cc1cccc(CCNC(=O)C2CCC(CNS(=O)(=O)c3cccs3)CC2)c1", "note": "(centres undefined)", "Potency": "inconclusive [inhibitor, single point]"}, {"smiles": "COCCN1C=C2C(=O)C(C)(OC(=O)CCC(=O)OC)C(=O)C=C2C=C1C1CC1", "note": "(centres undefined)", "Potency": "inactive"}, {"smiles": "COc1ccc(Cl)cc1NC(=O)CN1CCc2ccccc21", "Potency": "inconclusive [inhibitor, single point]"}, {"smiles": "Cc1cc(-c2csc(N)n2)c(C)n1CCc1ccccc1", "Potency": "inconclusive [inhibitor, single point]"}, {"smiles": "Cc1noc(C)c1COc1ccccc1C(=O)NCCc1ccc(Cl)cc1", "Potency": "inconclusive [inhibitor, full curve]"}, {"smiles": "COc1cccc(C(=O)N2N=C(c3cccc(OC)c3)CC2(O)C(F)(F)F)c1", "note": "(centres undefined)", "Potency": "inconclusive [inhibitor, partial curve]"}, {"smiles": "CC(=O)N1CCCc2cc(S(=O)(=O)N3CCCC(C(=O)N4CCN(c5cc(C)ccc5C)CC4)C3)ccc21", "note": "(centres undefined)", "Potency": "active: 10 µM"}, {"smiles": "CC1CC(C)CN(C(=S)Nc2ccc(SC(F)F)cc2)C1", "note": "(centres undefined)", "Potency": "inconclusive [inhibitor, partial curve]"}, {"smiles": "COc1c(C(=O)NCCSC(C)(C)C)ccc2ccccc12", "Potency": "inactive"}, {"smiles": "COc1cnc(SCc2ccc(Cl)cc2Cl)nc1Cl", "Potency": "inconclusive [inhibitor, single point]"}, {"smiles": "CCC1=C(OC(=O)N(CC)CC)N2C(=O)OC(=NCCc3c[nH]c4ccccc34)[C@]2(Cc2ccccc2)[C@H]2C1=CC[C@H]1C(=O)N(C)C(=O)[C@H]12", "Potency": "inactive"}, {"smiles": "O=C(NC12CC3CC(CC(C3)C1)C2)N1CCN(c2ccccn2)CC1", "Potency": "inactive"}, {"smiles": "CCCCNC(=O)CCn1nc(-c2ccccc2)c2ccccc2c1=O", "Potency": "inconclusive [inhibitor, partial curve]"}, {"smiles": "O=C(NNc1ccccn1)C(=O)NNS(=O)(=O)c1ccc(F)cc1", "Potency": "inconclusive [inhibitor, partial curve]"}, {"smiles": "FC(F)(F)c1cc(CCN2CCNC[C@H]2Cc2cccc3ccccc23)cc(C(F)(F)F)c1", "Potency": "inconclusive [inhibitor, single point]"}, {"smiles": "COc1cccc(C(=O)N(Cc2nc(-c3ccc(C)cc3)no2)C(C)C)c1", "Potency": "inconclusive [inhibitor, partial curve]"}, {"smiles": "COC(=O)c1ccc(NC(=S)NCCc2ccc(OC)cc2)cc1", "Potency": "inconclusive [inhibitor, single point]"}, {"smiles": "CN1C(=O)/C(=C\\c2ccc(N3CCCCCC3)cc2)C(=O)NC1=S", "Potency": "inactive"}, {"smiles": "COc1ccc(OC)c(CCNC(=O)c2ccc3c(c2)N(Cc2ccc(F)cc2)CCS3)c1", "Potency": "inconclusive [inhibitor, partial curve]"}, {"smiles": "C=CCNC(=S)N/N=C/c1cn(C)c2ccccc12", "Potency": "active: 35.5 µM"}, {"smiles": "CCOC(=O)c1csc(NC(=O)CCSc2ccccc2)n1", "Potency": "inconclusive [inhibitor, single point]"}, {"smiles": "COc1cc(NC(=O)C/C(C)=N/NC(=O)C(OC)c2ccccc2)c(OC)cc1Cl", "note": "(centres undefined)", "Potency": "inconclusive [inhibitor, single point]"}, {"smiles": "O=C(N/N=C/c1ccc2c(c1)OCO2)C(=O)Nc1ccccc1Cl", "Potency": "inactive"}, {"smiles": "COc1ccc(S(=O)(=O)N2CCN(C(=O)c3cc(-c4ccc(C)cc4)n[nH]3)CC2)cc1", "Potency": "inconclusive [inhibitor, single point]"}, {"smiles": "CCC(=O)c1ccc(OC)c(OC)c1OCc1ccccc1", "Potency": "inactive"}, {"smiles": "CCCCNC(=S)N(C)/N=C/c1c(C)[nH]c2ccccc12", "Potency": "inactive"}, {"smiles": "COc1ccc2oc(C(=O)OCC(=O)N3CCN(S(=O)(=O)c4ccc(C)cc4)CC3)c(C)c2c1", "Potency": "inconclusive [inhibitor, single point]"}, {"smiles": "O=S(=O)(c1cccc(-c2cn3ccccc3n2)c1)N1CCCC1", "Potency": "inconclusive [inhibitor, single point]"}, {"smiles": "COc1ccccc1CCC(=O)Nc1cccc(S(=O)(=O)N2CCOCC2)c1", "Potency": "inconclusive [inhibitor, single point]"}, {"smiles": "CC12CCC(=O)N1C(C(=O)Nc1nc(-c3ccc(F)c(F)c3)cs1)CS2", "note": "(centres undefined)", "Potency": "inconclusive [inhibitor, single point]"}, {"smiles": "CCN1C(=O)[C@H]2[C@@H](c3ccc(-c4ccc(C(C)=O)cc4)cc3)N3CCC[C@@]3(C(=O)OC)[C@H]2C1=O", "Potency": "inconclusive [inhibitor, partial curve]"}, {"smiles": "CC(C)c1ccc(NC(=O)CCNS(=O)(=O)c2cccc3nsnc23)cc1", "Potency": "inconclusive [inhibitor, partial curve]"}, {"smiles": "CCOc1ccccc1NC(=O)N1CCCC1C(=O)NCc1ccco1", "note": "(centres undefined)", "Potency": "inactive"}, {"smiles": "C/C(CCc1oc2ccccc2c1-c1ccc(C)o1)=N/O", "Potency": "active: 7.94 µM"}, {"smiles": "O=C(CSc1nnc2c(n1)[nH]c1ccccc12)Nc1cccc(S(=O)(=O)N2CCOCC2)c1", "Potency": "inconclusive [inhibitor, single point]"}, {"smiles": "COc1ccccc1NC(=O)c1cc(S(=O)(=O)NC2CCCC2)ccc1F", "Potency": "inactive"}, {"smiles": "Cc1ccc(CNCc2cc3c(C(C)(C)C)nn(-c4ccccc4)c3[nH]c2=O)cc1", "Potency": "active: 10 µM"}, {"smiles": "CCOC(=O)c1nn(-c2ccccc2F)c(-c2ccccc2)c1C(=O)c1ccccc1", "Potency": "inconclusive [inhibitor, single point]"}, {"smiles": "CCc1sc(C(=O)Nc2ccc(N3CCOCC3)cc2)cc1C", "Potency": "inconclusive [inhibitor, full curve]"}, {"smiles": "O=c1c2cnn(-c3ccccc3)c2nc(-c2cccs2)n1-c1cccc(Cl)c1", "Potency": "inconclusive [inhibitor, partial curve]"}, {"smiles": "CC(C)(C)n1nnnc1C(c1cccs1)N(Cc1ccccc1)Cc1cccnc1", "note": "(centres undefined)", "Potency": "inactive"}, {"smiles": "CCCOC1CCCN(C(=O)c2cc(COc3ccc(-n4cncn4)cc3)on2)C1", "note": "(centres undefined)", "Potency": "inconclusive [inhibitor, single point]"}, {"smiles": "O=C(Nc1ccc2[nH]c(=O)[nH]c2c1)c1ccc([N+](=O)[O-])o1", "Potency": "active: 10 µM"}, {"smiles": "O=C(Nc1ccc(Cl)cc1)Nc1nccs1", "Potency": "inconclusive [inhibitor, partial curve]"}, {"smiles": "O=C(O)CCN1C(=O)C2C3CC(C2C1=O)C1C(c2ccccc2)c2sc(=O)[nH]c2SC31", "note": "(centres undefined)", "Potency": "inactive"}, {"smiles": "Cc1cc(C)nc(SCc2nnc(SCC(=O)N3CCCc4ccccc43)o2)n1", "Potency": "inconclusive [inhibitor, single point]"}, {"smiles": "Cc1ccc(NC(=O)CSc2nc(-c3ccco3)cc(C(F)(F)F)n2)cc1C", "Potency": "inconclusive [inhibitor, full curve]"}, {"smiles": "O=C(c1ccc(CS(=O)(=O)c2ccc(Br)cc2)o1)N1CCCCCC1", "Potency": "inconclusive [inhibitor, single point]"}]}]}
